From the GPR68 mutational scans of Howard et al. (2025) come the findings set out here.

The labels stand for the following.
B1: GPR68, Q15743 (parent)
chain: MGNITADNSSMSCTIDHTIHQTLAPVVYVTVLVVGFPANCLSLYFGYLQIKARNELGVYLCNLTVADLFYICSLPFWLQYVLQHDNWSHGDLSCQVCGILLYENIYISVGFLCCISVDRYLAVAHPFRFHQFRTLKAAVGVSVVIWAKELLTSIYFLMHEEVIEDENQHRVCFEHYPIQAWQRAINYYRFLVGFLFPICLLLASYQGILRAVRRSHGTQKSRKDQIQRLVLSTVVIFLACFLPYHVLLLVRSVWEASCDFAKGVFNAYHFSLLLTSFNCVADPVLYCFVSETTHRDLARLRGACLAFLTCSRTGRAREAYPLGAPEASGKSGAQGEEPELLTKLHPAFQTPNSPGSGGFPTGRLA

The least precise scores are not listed. The source holds two more conditions with little spread; they are left out. Read del as a deletion of the residues named and ins as an insertion between two positions. For part of these data: The data file names ogerin without a concentration.

The variants in data set [1] derive from B1. The data set can be described thus: cAMP reporter score (Enrich2 score, wild type = 0); higher = more signal; HEK293T, FACS bins.
In data set [2] the parent is B1. The data set is described as follows: surface expression score (Enrich2 score, wild type = 0); higher = more signal; HEK293T, FACS bins.

Consider R213_R214insG, for which the cAMP reporter score in data set [1] (pH 6) was -0.668.
Take G357_G358del: the cAMP reporter score in data set [1] (pH 6) is -0.619; in data set [1] (pH 6.5, modulator: ogerin), 2.56.
For the variant F111A, the cAMP reporter score in data set [1] (pH 6, modulator: ogerin) is -1.2; in data set [1] (pH 6.5, modulator: ogerin), -0.443. Besides, the surface expression score in data set [2] is -0.778.
With F111Y, the cAMP reporter score in data set [1] (pH 6) was -0.542; in data set [1] (pH 6, modulator: ogerin), -0.661. The surface expression score in data set [2] is -1.36.
For F111T, the cAMP reporter score in data set [1] (pH 6.5, modulator: ogerin) is -1.12. Further, the surface expression score in data set [2] was -3.57.
As for S311A, the cAMP reporter score in data set [1] (pH 6) was -0.591; in data set [1] (pH 6, modulator: ogerin), -0.678; in data set [1] (pH 6.5, modulator: ogerin), 0.448.
In the case of S311W, in data set [1] (pH 6, modulator: ogerin), the cAMP reporter score was -0.629. For the same variant, the surface expression score in data set [2] was 1.35.
Regarding P197_I198del, the cAMP reporter score was -1.06 in data set [1] (pH 6) and -0.852 in data set [1] (pH 6.5, modulator: ogerin). Also, the surface expression score in data set [2] was -1.64.
Consider S257_C258del, for which the cAMP reporter score was -0.813 in data set [1] (pH 6); -1.65 in data set [1] (pH 6, modulator: ogerin); -1.58 in data set [1] (pH 6.5, modulator: ogerin). In addition, the surface expression score in data set [2] is -0.943.
P177I: the cAMP reporter score is -0.582 in data set [1] (pH 6) and -0.696 in data set [1] (pH 6, modulator: ogerin). Further, the surface expression score in data set [2] is -0.397.
Turning to Y176D, the cAMP reporter score was -0.943 in data set [1] (pH 6); -0.248 in data set [1] (pH 6, modulator: ogerin); -0.434 in data set [1] (pH 6.5, modulator: ogerin). In data set [2], the surface expression score is -1.32.
For Y176K, the cAMP reporter score in data set [1] (pH 6) was -1.05; in data set [1] (pH 6.5, modulator: ogerin) it was -2.12. In addition, the surface expression score in data set [2] was -0.808.
Take Y176V: the cAMP reporter score was -1.58 in data set [1] (pH 6, modulator: ogerin) and -2.63 in data set [1] (pH 6.5, modulator: ogerin). Moreover, the surface expression score in data set [2] was determined as 0.171.
As for F156W, the cAMP reporter score in data set [1] (pH 6) was -0.474; in data set [1] (pH 6, modulator: ogerin), -0.602.
With F156N, the cAMP reporter score is 0.486 in data set [1] (pH 6) and -0.666 in data set [1] (pH 6, modulator: ogerin). Besides, in data set [2], the surface expression score was -2.03.
As to V212del, the cAMP reporter score in data set [1] (pH 6.5, modulator: ogerin) is -1.56. Besides, the surface expression score in data set [2] was -0.075.
Turning to D224C, the cAMP reporter score in data set [1] (pH 6) is 0.105; in data set [1] (pH 6, modulator: ogerin), -0.273; in data set [1] (pH 6.5, modulator: ogerin), 0.007. For the same variant, the surface expression score in data set [2] was 1.13.
In the same order, the values of D224M are 0.795, 0.928, 1.94 and 1.66.
Consider D224K, for which the cAMP reporter score in data set [1] (pH 6, modulator: ogerin) was determined as 0.991; in data set [1] (pH 6.5, modulator: ogerin) it was 1.97. For the same variant, in data set [2], the surface expression score was found to be 2.85.
Turning to L112D, the cAMP reporter score is -0.534 in data set [1] (pH 6) and -1.06 in data set [1] (pH 6, modulator: ogerin).
Consider L112F, for which the cAMP reporter score in data set [1] (pH 6) is -0.673; in data set [1] (pH 6, modulator: ogerin), -0.652; in data set [1] (pH 6.5, modulator: ogerin), -0.412. Besides, the surface expression score in data set [2] was -0.375.
In the case of L112I, the cAMP reporter score in data set [1] (pH 6.5, modulator: ogerin) is -0.377.
In the case of Q131W, the cAMP reporter score in data set [1] (pH 6) was 2.08; in data set [1] (pH 6, modulator: ogerin) it was -1.38.
For H130S, the cAMP reporter score in data set [1] (pH 6, modulator: ogerin) was -0.623; in data set [1] (pH 6.5, modulator: ogerin) it was -0.448.
In the case of H130F, the cAMP reporter score in data set [1] (pH 6) is -0.687; in data set [1] (pH 6, modulator: ogerin), 0.029; in data set [1] (pH 6.5, modulator: ogerin), -0.43. Also, the surface expression score in data set [2] was -1.73.
Turning to H130I, the cAMP reporter score in data set [1] (pH 6) was 0.437; in data set [1] (pH 6.5, modulator: ogerin), 0.225. Besides, in data set [2], the surface expression score is 0.555.
Turning to S353F, the cAMP reporter score in data set [1] (pH 6) came to 2.18. Besides, the surface expression score in data set [2] was 1.15.
For S353Q, the cAMP reporter score in data set [1] (pH 6) is 0.658; in data set [1] (pH 6, modulator: ogerin) it was 0.915; in data set [1] (pH 6.5, modulator: ogerin), -0.438.
K262T: the cAMP reporter score in data set [1] (pH 6, modulator: ogerin) came to 2.51. In data set [2], the surface expression score came to 0.143.
As to S331V, the cAMP reporter score in data set [1] (pH 6) is -0.447; in data set [1] (pH 6, modulator: ogerin), 0.809. In addition, the surface expression score in data set [2] stood at 2.03.
With Q168Y, the cAMP reporter score came to 0.715 in data set [1] (pH 6, modulator: ogerin) and 0.244 in data set [1] (pH 6.5, modulator: ogerin). Also, the surface expression score in data set [2] is 2.46.
As to Q168P, the cAMP reporter score in data set [1] (pH 6.5, modulator: ogerin) is -1.19.
Take K343Q: the cAMP reporter score in data set [1] (pH 6) is 1.15; in data set [1] (pH 6, modulator: ogerin), 1.24. In addition, in data set [2], the surface expression score was 2.95.
Take Q219_K220insG: the cAMP reporter score in data set [1] (pH 6) was -1.56; in data set [1] (pH 6, modulator: ogerin), -1.28; in data set [1] (pH 6.5, modulator: ogerin) it was -2.06.
Consider A239_C240insGS, for which the cAMP reporter score in data set [1] (pH 6, modulator: ogerin) was -2.6; in data set [1] (pH 6.5, modulator: ogerin), -1.53. Also, the surface expression score in data set [2] is -1.41.
Turning to P338L, the cAMP reporter score in data set [1] (pH 6) was 2.22; in data set [1] (pH 6, modulator: ogerin) it was 0.234; in data set [1] (pH 6.5, modulator: ogerin) it was 0.412.
For A327N, the cAMP reporter score in data set [1] (pH 6, modulator: ogerin) was 0.724; in data set [1] (pH 6.5, modulator: ogerin), 1.73. In addition, the surface expression score in data set [2] turned out to be 2.1.
Regarding H159C, in data set [1] (pH 6, modulator: ogerin), the cAMP reporter score is -2.83.
As to H159I, the cAMP reporter score in data set [1] (pH 6) is -1.48; in data set [1] (pH 6.5, modulator: ogerin), -1.52. Besides, the surface expression score in data set [2] is -0.897.
For H159P, the cAMP reporter score in data set [1] (pH 6) is -1.04; in data set [1] (pH 6, modulator: ogerin), -1.61; in data set [1] (pH 6.5, modulator: ogerin), -1.37. In addition, the surface expression score in data set [2] was -0.377.
K330H: the cAMP reporter score in data set [1] (pH 6, modulator: ogerin) came out at 2.63. Also, the surface expression score in data set [2] is -0.012.
Consider K330W, for which the surface expression score in data set [2] is -0.318.
Regarding K330R, in data set [1] (pH 6, modulator: ogerin), the cAMP reporter score is -0.609. Further, the surface expression score in data set [2] was -0.329.
For L238_A239insG, in data set [1] (pH 6.5, modulator: ogerin), the cAMP reporter score was -0.439.
Turning to E164M, the cAMP reporter score in data set [1] (pH 6.5, modulator: ogerin) was -2.53. The surface expression score in data set [2] was -0.431.
